Hit rate of the full screen: of about 3,200 compounds, about 110 (3.4%) showed an effect of 50% or more. This is one part of the list.
System: T1, V. cholerae SAD30
T1 construct: SAD30
Set-up: species or system S. aureus MSSA476 (TSB) or V. cholerae SAD30 (LB); 384-well bacterial growth screen at 25 uM, OD600 relative to DMSO control
Conditions: relative growth, OD600, LB; 25 µM; inhibitor

SMILES | % of control remaining [%]
COc1ccc2cc(C=C(C#N)C(=O)Nc3nccs3)ccc2c1 [9-E08, 2-cyano-3-(6-methoxynaphthalen-2-yl)-N-(1,3-thiazol-2-yl)prop-2-enamide] | 74.983
CN(C)c1nc(N2CCOCC2)ncc1NC(=O)CCl [5-M22, 2-chloro-N-[4-(dimethylamino)-2-(morpholin-4-yl)pyrimidin-5-yl]acetamide] | 105.916
C=CC(=O)NCC1CCC2(CCCC2)O1 (centres unmarked) [1-A06, N-({1-oxaspiro[4.4]nonan-2-yl}methyl)prop-2-enamide] | 91.9283
C=CC(=O)NCc1ncccc1-n1cccn1 [2-N19, N-{[3-(1H-pyrazol-1-yl)pyridin-2-yl]methyl}prop-2-enamide] | 92.8206
C=CC(=O)N(CCO)c1ccc(C(=O)O)cc1 [1-M10, 4-[N-(2-hydroxyethyl)prop-2-enamido]benzoic acid] | 88.6398
CC(Cl)C(=O)N1CCN(C(C)C)c2ccccc2C1 (centres unmarked) [7-O07, 2-chloro-1-[1-(propan-2-yl)-2,3,4,5-tetrahydro-1H-1,4-benzodiazepin-4-yl]propan-1-one] | 66.4794
C=CC(=O)N1CCCC(NS(=O)(=O)c2cccc(F)c2)C1 (centres unmarked) [3-G15, 3-fluoro-N-[1-(prop-2-enoyl)piperidin-3-yl]benzene-1-sulfonamide] | 78.504
CC(Cl)C(=O)Nc1ccc([N+](=O)[O-])cc1C(F)(F)F (centres unmarked) [6-D06, 2-chloro-N-[4-nitro-2-(trifluoromethyl)phenyl]propanamide] | 84.1786
CC(Cl)C(=O)N1CCCc2c1ccnc2N(C)C (centres unmarked) [6-D14, 2-chloro-1-[5-(dimethylamino)-1,2,3,4-tetrahydro-1,6-naphthyridin-1-yl]propan-1-one] | 87.5154
C=CC(=O)N1CCC(Cc2noc(C)n2)CC1 [2-G22, 1-{4-[(5-methyl-1,2,4-oxadiazol-3-yl)methyl]piperidin-1-yl}prop-2-en-1-one] | 114.127
CCc1nsc(N2CCN(C(=O)C(C#N)=Cc3ccco3)CC2)n1 [9-K05, 2-[4-(3-ethyl-1,2,4-thiadiazol-5-yl)piperazine-1-carbonyl]-3-(furan-2-yl)prop-2-enenitrile] | 91.9782
C=CC(=O)NC(=O)NCc1ccccc1 [1-I04, 1-benzyl-3-(prop-2-enoyl)urea] | 96.861
Cc1cc(C(C)(C)C)cc(C)c1CCNC(=O)CCl [4-A16, N-[2-(4-tert-butyl-2,6-dimethylphenyl)ethyl]-2-chloroacetamide] | 101.79
Cc1cc(C)c(NC(=O)C(C#N)=Cc2cccnc2)c(C)c1 [8-B17, 2-cyano-3-(pyridin-3-yl)-N-(2,4,6-trimethylphenyl)prop-2-enamide] | 75.119
COc1cc(C)c(C=C(C#N)C(=O)Nc2ccc(C)cc2)cc1C(C)C [9-C04, 2-cyano-3-[4-methoxy-2-methyl-5-(propan-2-yl)phenyl]-N-(4-methylphenyl)prop-2-enamide] | 94.6975
CCOc1cc(C=C(C#N)C(=O)N2CCCC2)cc(Cl)c1O [8-M06, 3-(3-chloro-5-ethoxy-4-hydroxyphenyl)-2-(pyrrolidine-1-carbonyl)prop-2-enenitrile] | 72.8076
C=CC(=O)N1CCN(S(=O)(=O)CC)CC1 [3-D20, 1-[4-(ethanesulfonyl)piperazin-1-yl]prop-2-en-1-one] | 105.852
N#CC(=Cc1ccc(OC(F)F)cc1)C(=O)N1CCCCC1 [8-J20, 3-[4-(difluoromethoxy)phenyl]-2-(piperidine-1-carbonyl)prop-2-enenitrile] | 68.5928
C=CC(=O)N1CCC(C(=O)Nc2nc3cc(F)c(C)cc3s2)CC1 [2-K15, N-(5-fluoro-6-methyl-1,3-benzothiazol-2-yl)-1-(prop-2-enoyl)piperidine-4-carboxamide] | 76.6091
COc1ccccc1NC(=O)C(C#N)=Cc1sccc1C [9-P19, 2-cyano-N-(2-methoxyphenyl)-3-(3-methylthiophen-2-yl)prop-2-enamide] | 85.724
CC(C)NC(=O)C(C#N)=Cc1c(Cl)nc2ccccn12 [9-A11, 3-{2-chloroimidazo[1,2-a]pyridin-3-yl}-2-cyano-N-(propan-2-yl)prop-2-enamide] | 91.8423
O=C(CCl)NCCc1ncc(F)cn1 [6-E19, 2-chloro-N-[2-(5-fluoropyrimidin-2-yl)ethyl]acetamide] | 92.5206

SMILES | % of control remaining [%]
CC1CN(c2cccc(CN(C)C(=O)C(C)Cl)c2)S(=O)(=O)C1 (centres unmarked) [6-L18, 2-chloro-N-methyl-N-{[3-(4-methyl-1,1-dioxo-1lambda6,2-thiazolidin-2-yl)phenyl]methyl}propanamide] | 87.0604
NC(=O)CCN(C(=O)CCl)c1ccc(F)cc1 [5-C03, 3-[2-chloro-N-(4-fluorophenyl)acetamido]propanamide] | 115.499
Cc1ccc(C)c(C=C(C#N)C(=O)Nc2nccs2)c1 [9-N13, 2-cyano-3-(2,5-dimethylphenyl)-N-(1,3-thiazol-2-yl)prop-2-enamide] | 98.2325
O=C(NC1CC1)C1(C(=O)N2CCSSCC2)CCC1 [10-B21, N-cyclopropyl-1-(1,2,5-dithiazepane-5-carbonyl)cyclobutane-1-carboxamide] | 104.89
C=CC(=O)NCc1nnc2n1CCCCC2 [3-N07, N-({5H,6H,7H,8H,9H-[1,2,4]triazolo[4,3-a]azepin-3-yl}methyl)prop-2-enamide] | 97.7357
O=C(CCl)c1ccc(Cl)c(Cl)c1 [10-L16, 2-chloro-1-(3,4-dichlorophenyl)ethan-1-one] | 0
COc1ccc(C=C(C#N)C(=O)NC(C)c2ccccc2)cc1O (centres unmarked) [8-J18, 2-cyano-3-(3-hydroxy-4-methoxyphenyl)-N-(1-phenylethyl)prop-2-enamide] | 69.6805
CC(Cl)C(=O)N1N=C(c2ccc(Cl)cc2)CC1c1ccco1 (centres unmarked) [5-H18, 2-chloro-1-[3-(4-chlorophenyl)-5-(furan-2-yl)-4,5-dihydro-1H-pyrazol-1-yl]propan-1-one] | 49.4273
CSc1ccccc1NC(=O)CCl [4-E11, 2-chloro-N-[2-(methylsulfanyl)phenyl]acetamide] | 92.3011
COc1cc(C=C(C#N)C(=O)NC2CC2)cc(OC)c1O [9-O19, 2-cyano-N-cyclopropyl-3-(4-hydroxy-3,5-dimethoxyphenyl)prop-2-enamide] | 92.2502
CC(=O)N1CCC(NC(=O)C(C)Cl)c2ccc(F)cc2C1 (centres unmarked) [7-I16, N-(2-acetyl-8-fluoro-2,3,4,5-tetrahydro-1H-2-benzazepin-5-yl)-2-chloropropanamide] | 81.8107
O=CN1CCc2cc(C(=O)CCl)ccc21 [10-K20, 5-(2-chloroacetyl)-2,3-dihydro-1H-indole-1-carbaldehyde] | 27.1186
Cc1cc(C(=O)CCl)c(C)n1-c1ccc(Cl)cc1 [10-H18, 2-chloro-1-[1-(4-chlorophenyl)-2,5-dimethyl-1H-pyrrol-3-yl]ethan-1-one] | 103.331
O=C(CCl)N(CC1=CCCOC1)Cc1ccccc1 [7-J20, N-benzyl-2-chloro-N-[(5,6-dihydro-2H-pyran-3-yl)methyl]acetamide] | 80.6212
O=C(CCl)NCC(=O)N1CCC(Cc2ccccc2)CC1 [6-F04, N-[2-(4-benzylpiperidin-1-yl)-2-oxoethyl]-2-chloroacetamide] | 93.4307
C=CC(=O)N1CCC(C(=O)Nc2cccc(-c3n[nH]c(C)n3)c2)CC1 [2-J09, N-[3-(5-methyl-1H-1,2,4-triazol-3-yl)phenyl]-1-(prop-2-enoyl)piperidine-4-carboxamide] | 93.5926
Cc1cc(C)c(NC(=O)C(C#N)=Cc2ccc(C)o2)c(C)c1 [9-I17, 2-cyano-3-(5-methylfuran-2-yl)-N-(2,4,6-trimethylphenyl)prop-2-enamide] | 87.7634
O=C1C=CC(=O)N1CCCCO [10-K07, 1-(4-hydroxybutyl)-2,5-dihydro-1H-pyrrole-2,5-dione] | 17.4557
C=CC(=O)N(Cc1cn2ccccc2n1)C1CC1 [3-J21, N-cyclopropyl-N-({imidazo[1,2-a]pyridin-2-yl}methyl)prop-2-enamide] | 90.3253
CC(Cl)C(=O)NCC(C)c1nncn1C (centres unmarked) [7-A07, 2-chloro-N-[2-(4-methyl-4H-1,2,4-triazol-3-yl)propyl]propanamide] | 92.7804
Cc1ccsc1C=C(C#N)C(=O)Nc1c(Cl)cccc1Cl [8-D22, 2-cyano-N-(2,6-dichlorophenyl)-3-(3-methylthiophen-2-yl)prop-2-enamide] | 74.1672
C=CC(=O)NCCc1csc(-c2ccccc2)n1 [1-A13, N-[2-(2-phenyl-1,3-thiazol-4-yl)ethyl]prop-2-enamide] | 78.6248
